{
  "source": "the RNAGym collection of RNA variant scans (doi:10.1093/nar/gkz1192)",
  "parents": {"B1": {"name": "CPEB3 Ribozyme (parent)", "chain": "UAACAGGGGGCCACAGCAGAAGCGUUCACGUCGCAGCCCCUGUCAGAUUCUGGUGAAUCUGCGAAUUCUGCUGUAUAUCUC"}},
  "note": "Read counts are not given, so values of variants with three or more changes are uncertain.",
  "data": [
    {"variants_of": "B1", "assay": "self-cleavage, relative activity (ratio to wild type); higher = more cleavage; in vitro, sequencing", "method_in_brief": "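Libraries of CPEB3 self-cleaving ribozyme mutants came from rounds of error-prone PCR and carried barcodes, which DNA sequencing matched to variants. In vitro transcription used T7 RNA polymerase at 37°C for 5 hours, with a further 15 min in DNase I before EDTA stopped the reaction; the ribozymes cleaved during both steps. The RNA was reverse transcribed with template switching and sequenced on Illumina. Relative activity is the cleaved/total read fraction of a variant divided by that of the unmutated ribozyme, averaged over three batches with at least 5 reads.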", "values": [
      {"variant": "UAACUGGGGGCCACAGCGGAAGCGUUCACGUCGCAGCCCCCGUCAGAUUCUGGUGAAUCUGCGAAUUCUGCUGUAUAUCUC", "note": "[A5U A18G U41C]", "self-cleavage": 0.89},
      {"variant": "UAACUGGGGGCCACUGCAGAAGGGUUCACGUCGCAGCCCCUGUCAGAUCCUGGUGAAUCUGCGGAUACUGCUGUAUAUCUC", "note": "[A5U A15U C23G U49C A64G U67A]", "self-cleavage": 0.23},
      {"variant": "UAACUGGGGGCCACAGCUGAAGCGUGCACGUCGCAGCCCCUGUCAGAUUCUGGUGAAUCUGCGAAUUCUGCUGUAUAUCAC", "note": "[A5U A18U U26G U80A]", "self-cleavage": 0.05},
      {"variant": "UAACUGGGGGCCACAGCGGAAGCGUUCACGUCGCAGCCCCUGUCAGAUUCUGGUGAAUCUGCGAAUUCUGCUGUAUGUCUC", "note": "[A5U A18G A77G]", "self-cleavage": 1.03},
      {"variant": "UAACUGGGGGCCACAGCUGAAGCGUCCACGUCGCAGCCCCUGUCAGAUUCUGGUGAAUCUGCGAAUUCUGCUGUAUAUCUC", "note": "[A5U A18U U26C]", "self-cleavage": 0.33},
      {"variant": "UAACUGGGGGCCACAGCUGAAGCGUUCACGACGCAGCCCCUGUCAGAUCCUGGUGAAUCUGCGAAUUCUGCUGUAUAUCAC", "note": "[A5U A18U U31A U49C U80A]", "self-cleavage": 0.09},
      {"variant": "UAACUGGGGGCCACAGCAGAGGCGUUCUCGUCGCAGCCCCUGUCAGAUUGCGGUGGAUCUGCGAAUUCUGCUGUAUAUCUC", "note": "[A5U A21G A28U C50G U51C A56G]", "self-cleavage": 0.11},
      {"variant": "UAACUGGGGGCCACAGCAGAGGCGUUCACUUCGCAGCCCCCGUCAGAUUCUGGUGAAUCUGCGAAUUCUGCUGUAUGUCUC", "note": "[A5U A21G G30U U41C A77G]", "self-cleavage": 0.13},
      {"variant": "UAACUGGGGGCCACAGCAGGAGCGUUCACGUCGCAGCCCCUGUCAGAUCCUGGUGAAUCUGCGAAUUCUGCUGUUUAUCUC", "note": "[A5U A20G U49C A75U]", "self-cleavage": 0.67},
      {"variant": "UAACUGGGGGCCACAGCAGGAGCGUUCACGUCGCCGCCCCCGUCAGAUUCUGGUGAAUCUGCGAAUUCUGCUGUAUGUCAC", "note": "[A5U A20G A35C U41C A77G U80A]", "self-cleavage": 0.42},
      {"variant": "UAACUGGGGGCCACAGCAGAGGCGUUCACGUCGCAGCCCCUGUCAGAUUCUGGUGAAUCAGCGAAUUCUGCUGUAUAUCUC", "note": "[A5U A21G U60A]", "self-cleavage": 0.36},
      {"variant": "UAACUGGGGGCCACAGCAGAGGCGUUCACGUCGCAGCCCCUGUCAGUUUCCGGUGAAUCUGCGUAUUCUGCUGUAUAUCUC", "note": "[A5U A21G A47U U51C A64U]", "self-cleavage": 0.14},
      {"variant": "UAACUGGGGGCCACAGCAGAGGCGUUCAUGUCGCAGUCCCUGGCAGAUUCUGGUGAAUCUGCGAAUUCUGCUGUAUUUCUC", "note": "[A5U A21G C29U C37U U43G A77U]", "self-cleavage": 0.33},
      {"variant": "UAACUGGGGGCCACAGCAGGAGCGUUCGCGUCGCAGCCCCUGUCAGAUUCUGGUGAACCUGCGGAUUCUGCCGUAUAUCUC", "note": "[A5U A20G A28G U58C A64G U72C]", "self-cleavage": 0.2},
      {"variant": "UAACUGGGGGCCACAGCUGAAGCGUACACGUCGCAGCCCCUGUCAGAAUCAGGUGAAUCUGCGAAUUCUGCUGUAUAUCUC", "note": "[A5U A18U U26A U48A U51A]", "self-cleavage": 0.23},
      {"variant": "UAACUGGGGGCCACAGCAGGAGCGUCCACGUCGCAGCCCCUGUCAGAUUCUGGUGAGUCUGCGAACUCUGCUGUAUAUCUC", "note": "[A5U A20G U26C A57G U66C]", "self-cleavage": 0.14},
      {"variant": "UAACUGGGGGCCACAGCGGAAGCGUUCACGUCGCAGCCCCUGUCAGAUUCAGGUGGAUCGGCGAAUUCUGCUGUAUAUCUC", "note": "[A5U A18G U51A A56G U60G]", "self-cleavage": 0.26},
      {"variant": "UAACUGGGGGCCACAGCUGAAGCGCUCACGUCGCAGCCCCUGUCAGAUUCUGGUGAAUCUGCGAAUUCUGCUGUAUAACUC", "note": "[A5U A18U U25C U78A]", "self-cleavage": 0.4},
      {"variant": "UAACUGGGGGCCACAGCGGAAGUGUUCACGUCGCAGCCCCUGUCAGAUUCUGGUGAAUCUGCGAAUUCUGCUGUUUAUCUC", "note": "[A5U A18G C23U A75U]", "self-cleavage": 0.08},
      {"variant": "UAACUGGGGGCCACAGCAGUAGCGCUCACGUCACAGCCCCAGUCAGAUUCUGGUGAAUCUGCGAAUUCUGCUAUAUAUCUC", "note": "[A5U A20U U25C G33A U41A G73A]", "self-cleavage": 0.53},
      {"variant": "UAACUGGGGGCCACAGCAGAGGCGUCCACGUCGCUGCCCCUGUCAGAUUCUGGUGAAUCCGAGAAUUCUGCUUUAUAUCUC", "note": "[A5U A21G U26C A35U U60C C62A G73U]", "self-cleavage": 0.05},
      {"variant": "UAACUGGGGGCCACAGCAGAGGCGUUCACGUCGCAGCCCCUGGCAGAUUCUGGUGAAUCUGCGAAUUCUGCUGUAUAUCUC", "note": "[A5U A21G U43G]", "self-cleavage": 0.43},
      {"variant": "UAACUGGGGGCCACAGCAGGAGCGUUCACGUCGCAGCCCCUGUCAGAUUCUGGCGAAUCCGCGAAUUCUGCUGUAUAUCCC", "note": "[A5U A20G U54C U60C U80C]", "self-cleavage": 0.44},
      {"variant": "UAACUGGGGGCCACAGCUGAAGCGUCCACGUCGCAGCCCCUGUCAGAUUCUGGUGAAUCUGCGAAUUCUGCUGUAUCUCCC", "note": "[A5U A18U U26C A77C U80C]", "self-cleavage": 0.17},
      {"variant": "UAACUGGGGGCCACAGCAGAGGCGUUCGCGUCGCAGCCCCUGUCGGAUUCUGGUGAAUCGGCGAAUUCUGCUGUAUAUCUC", "note": "[A5U A21G A28G A45G U60G]", "self-cleavage": 0.14},
      {"variant": "UAACUGGGGGCCACAGCGGUAGCGUUCACGUCGCAGCCCCUGUCAGAUUCCGGUGAAUCUGCAAAUUCUGCUGUAUAUCUC", "note": "[A5U A18G A20U U51C G63A]", "self-cleavage": 0.04},
      {"variant": "UAACUGGGGGCCACUGCAGAAGCGUUCACGUCGCAGCCCCUUUCAGAUUCUGGUGUAUCUGCGAAUUCCGCUGUAUAUCUC", "note": "[A5U A15U G42U A56U U69C]", "self-cleavage": 0.12},
      {"variant": "UAACUGGGGGCCACAGCGGAAGCGUUCACGUCGCAGCCCCUGUCAGAUUCUGGUGGGUCCGCGAAUUCUGCUGUAUAUCCC", "note": "[A5U A18G A56G A57G U60C U80C]", "self-cleavage": 0.18},
      {"variant": "UAACUGGGGGCCACAGCGGAAGCGUUCACGUCGCAGCCCCUGCCGGAUUCUGGUGAAUCUGCGAAUUCUGCCGUAUGUCUC", "note": "[A5U A18G U43C A45G U72C A77G]", "self-cleavage": 0.33},
      {"variant": "UAACUGGGGGCCACAGCUGGAGCGUUCACGCCGCAGCCCCUGUCAGAUUCUGGUGAAUCUGCGAAUUCUGCUGUAUAUGUC", "note": "[A5U A18U A20G U31C C79G]", "self-cleavage": 0.11},
      {"variant": "UAACUGGGGGCCACAGCAGUAGUGUUCACGUCGCGGCCCCUGUCAGAUUCUGGUGAAUCUGCGAAUUCUGCUGCAUAUCUC", "note": "[A5U A20U C23U A35G U74C]", "self-cleavage": 0.26},
      {"variant": "UAACUGGGGGCCACAGCAGAGGCGUUCACGUCGCGGCCCCUGUCAGAUUCUGGUGAAUCUGCGAAUUGUGCUGUAUAUCUC", "note": "[A5U A21G A35G C68G]", "self-cleavage": 0.49},
      {"variant": "UAACUGGGGGCCACAGCAGAGGCGUUCACGUCGCAGCCCCAGUCAGAUUCUGGUGAAUCUGCGAAUUCUGUCGUAUAUCCC", "note": "[A5U A21G U41A C71U U72C U80C]", "self-cleavage": 0.06},
      {"variant": "UAACUGGGGGCCACUGCAGAAGCGUUCACGUCGCAGCCCCUGACAGAUUCUGGUGAAUCUACGAAUACUGCUGUUCAUCUC", "note": "[A5U A15U U43A G61A U67A A75U U76C]", "self-cleavage": 0.32}
    ]}
  ]
}
